# From ChEMBL document CHEMBL4888484, “Replenishing the malaria drug discovery pipeline: Screening and hit evaluation of the MMV Hit Generation Library 1 (HGL1) against asexual blood stage Plasmodium falciparum ,using a nano luciferase reporter read-out” (2022)
# In all, about 150,000 compounds went through this assay and about 540 (0.36%) showed an effect of 50% or more. Some of the results follow.
# Tested on: Plasmodium falciparum
# Assay: Primary screen in NF54 nanoGlo assay, in single point, at 2uM, 72h; a lower Z score goes with more inhibition
# Type: functional, Erythrocyte
# Conditions: timepoint 72 hour
Structure (SMILES),% Inhibition [%],Z score
CCn1nc(C)cc1C(=O)Nc1cc(C2CC2)n[nH]1,-4,0.74
Cc1nn(C)c(C)c1CCC(=O)N1CCC[C@@]2(CCC(=O)N(CCO)C2)C1,-3,0.53
CO[C@H]1CCCN(C(=O)Nc2ccncc2F)C1,-3,0.44
CCC1(CC)CN(C(=O)c2ccn(C)c(=O)c2)c2ccccc21,34,-1.19
O=C(Cn1c2c(c(=O)n3nc(-c4ccccc4)nc13)CCC2)Nc1ccc(F)cc1,-8,0.98
CCN(CC)c1onc(-c2ccccc2)c1CN(CC1CC1)C(=O)c1ccccc1F,10,-1.21
COCCCN1CC[C@H](CNC(=O)c2c(C)c3cc(F)ccc3n2C)C1,-7,1.14
C[C@H](O)c1onc(-c2cccs2)c1C(=O)NCc1ccncc1,-3,0.5
O=C(CCC1CC1)N1CC[C@H]2[C@H](CCC(=O)N2CCc2c[nH]cn2)C1,-4,0.77
O=C(NCCC(c1ccccc1)c1ccccc1)c1cc2n(n1)CCN(Cc1cccc(F)c1)C2=O,-13,1.84
CC(=O)N1CCC[C@H]1C(=O)N1CCOc2ccc(CN3CCN(C)C[C@@H]3c3ccccc3)cc2C1,19,-2.44
CC[C@@H](C(=O)NCCc1c(C)n[nH]c1C)n1cccn1,0,0.08
O=C(COC[C@H]1CCCO1)Nc1cnc2ccnn2c1,-10,1.14
CCc1nc(C)c(CN2CCCC[C@@H]2CCOC)[nH]1,-13,1.2
O=C(N1CCNCC1)C1(Cc2ccccc2)CC2CCC1C2 (centres undefined),-33,3.89
CCC(O)(C(=O)N1CCC2(CNC(=O)C2)C1)c1cccc(Cl)c1 (centres undefined),-12,1.4
N#Cc1c(F)cccc1N1CC[C@H](S(=O)(=O)N2CCCC2)C1,1,-0.07
O=C1CC[C@H](C(=O)Nc2ccc(F)cc2Nc2ccccc2F)N1,-6,0.71
CCN(c1ccncc1)S(=O)(=O)c1cc(C)sc1C,-13,2.02
CCN1CCN(C(=O)[C@@H]2CC(c3ccccc3)=NO2)CC1,-1,0.1
COc1ccc(CCn2c(N)c(-c3nc4ccccc4s3)c3nc(C#N)c(C#N)nc32)cc1OC,-5,0.86

Structure (SMILES),% Inhibition [%],Z score
CCN(CC)c1ccc(NS(=O)(=O)N(C)C)cn1,-9,1.23
COCCN1CC2(CCN(C(=O)c3cc(F)ccc3F)CC2)[C@H]1c1ccncc1,-13,2.28
CCOc1ccc(NC(=O)N2CCC3(CC2)C(=O)N(CC(=O)N2CCCCC2)CN3c2ccccc2)cc1,0,-0.08
C[C@@H](CCC(=O)NCc1ccc(C#N)cc1)N1CCCC1,-7,0.86
CCc1nc(NCCC(=O)NCc2ccccc2)c2cc(Cl)cc(Cl)c2n1,-14,1.32
CC(OC(=O)CCC1NC(=O)NC1=O)C(=O)Nc1ccccc1 (centres undefined),-3,0.47
Clc1cccc2c1CC[C@@H]2N1CCC(n2cncn2)CC1,-18,2.15
Cc1ccc(CCNc2ncnc3c(-c4ccccc4)noc23)cc1,7,-1.38
CC1(C)CC[C@H](CNC(=O)NCc2cnccn2)O1,-16,1.74
C[C@@H]1C[C@H](O)CN(C(=O)NC(c2cncc(Br)c2)C2CC2)C1 (some centres undefined),14,-1.79
O=C(CCc1ccccc1)N1CCCCC[C@H]1c1nnc(-c2ccccc2)o1,-14,2.62
Cc1noc(C(F)F)c1C(=O)N[C@H]1C[C@H](C)S(=O)(=O)c2sccc21,-8,1.21
Cc1ccc(Nc2nc(=O)[nH]nc2C)cc1N(C)C,-6,0.79
O=C(Cn1c(=O)n(CCc2ccccc2)c(=O)c2ccccc21)NCc1ccc(F)cc1,7,-0.96
CC(NC(=O)[C@H]1C[C@@H]1c1cccc(Cl)c1)c1nc[nH]n1 (some centres undefined),-20,2.55
CN(CC(F)(F)F)C(=O)Cn1ccncc1=O,-3,0.45
c1ccc(-c2ncn(CCc3[nH]nc4c3CCCC4)c2-c2cccnc2)cc1,1,-0.11
Cc1cc(C)c(OCCNC(=O)N2CCC3(CC2)CNC(=O)O3)c(C)c1,-2,0.33
CCC(CC)C(=O)Nc1cccc(NC(C)=O)c1,-8,1.47
CCN1CC(C(=O)NC(c2cncc(Br)c2)C2CC2)CC1=O (centres undefined),-8,0.97
NC(=O)COc1ccc(S(=O)(=O)NCc2nccnc2-c2cccs2)cc1,-11,2.07
